The other results are listed elsewhere or left out. At the low end of the ranking, values are background and their order means little.

The target of the experiment is SIX1 homeodomain (reference allele) (UniProt Q15475). Put plainly: universal protein binding microarray. As to conditions: Universal all-10-mer PBM (8x60K, AMADID 030236), 300 nM GST-tagged protein, Alexa Fluor 488 anti-GST; buffer, salt, pH and temperature not stated; high values mean tight binding; most listed sequences are background and not binding sites; double strand, one strand shown.
As for AGACGGTC, the binding signal was determined as 0.00261 E-score.

Take CCATTCCA: the binding signal was found to be 0.0467 E-score.

Regarding CAGAAAAC, the binding signal was -0.0302 E-score.

ATGACCTA: the binding signal was -0.0868 E-score.

For ATCTTTTA, the binding signal came out at 0.139 E-score.

CAGCTGCG: the binding signal is -0.00226 E-score.

Turning to CCTCATAC, the binding signal worked out at 0.0101 E-score.

As for CAAATACA, the binding signal is 0.0588 E-score.

With GAGGCATA, the binding signal amounted to 0.0109 E-score.

Regarding ATTAAGTC, the binding signal was -0.132 E-score.

As for AGGAAGAC, the binding signal is -0.0379 E-score.

With GCGGTTCC, the binding signal was -0.183 E-score.

With GCTATTGA, the binding signal was -0.00927 E-score.

As for GGGCGTCA, the binding signal was -0.0819 E-score.

On to ATGTGAAT, for which the binding signal is -0.0145 E-score.

As to ATTGATAC, the binding signal was 0.465 E-score.

Consider ACCACCAT, for which the binding signal is -0.0342 E-score.

With GAAGCCTC, the binding signal was -0.191 E-score.

ACAGCGTG: the binding signal is -0.109 E-score.

For AGGGGGTG, the binding signal was 0.186 E-score.

AGTCTTGG: the binding signal was -0.261 E-score.

On to GATACTAC, for which the binding signal is 0.432 E-score.

For ATTCACTC, the binding signal is -0.0706 E-score.

Consider GATTTGGC, for which the binding signal is -0.221 E-score.

In the case of GTCGGGTA, the binding signal turned out to be 0.0708 E-score.

As to CTATGGTA, the binding signal stood at 0.305 E-score.

Consider AGTCATGC, for which the binding signal is -0.295 E-score.

With AGAATCAT, the binding signal was -0.0172 E-score.

As to ATTCGCGC, the binding signal is -0.125 E-score.

As to AATATCCA, the binding signal is 0.296 E-score.

For CTTGGTAC, the binding signal came out at 0.00502 E-score.

As to TTAAAAAA, the binding signal is -0.167 E-score.

Consider CCTGACCC, for which the binding signal was -0.0141 E-score.

Take ATAAACAA: the binding signal was -0.0516 E-score.

In the case of ACAGAGGT, the binding signal is -0.163 E-score.

Consider CCGTCCCA, for which the binding signal is -0.0455 E-score.

As for AGCTCAAT, the binding signal was -0.129 E-score.

With GAGGGGAC, the binding signal is -0.105 E-score.

Consider AGCCCCTC, for which the binding signal was found to be 0.15 E-score.

For the sequence AATCCGGG, the binding signal stood at 0.322 E-score.

As for TCTCTGCA, the binding signal is -0.0957 E-score.

Take GGGCGGAA: the binding signal was -0.136 E-score.

GACATGGA: the binding signal is -0.072 E-score.

As to CCGGTCCC, the binding signal was -0.0566 E-score.

Turning to TTTGCAAA, the binding signal was -0.217 E-score.

In the case of GGCAAATA, the binding signal was -0.0547 E-score.

Consider ATAACCGA, for which the binding signal came to 0.104 E-score.

With CGTGCGAG, the binding signal is -0.0406 E-score.

As to GATCTCCA, the binding signal amounted to 0.239 E-score.

Turning to ATCCATTA, the binding signal worked out at 0.244 E-score.

Turning to CGTTCGTA, the binding signal is -0.0214 E-score.

CTAAGCGA: the binding signal was found to be 0.0445 E-score.

As for CCATCGTC, the binding signal is 0.0364 E-score.

Take TCAAGGGA: the binding signal was determined as 0.0583 E-score.

In the case of CGTGATCC, the binding signal amounted to 0.41 E-score.

Consider AATCACTG, for which the binding signal was -0.00292 E-score.

For AACTCACG, the binding signal was -0.193 E-score.

As to ATAGGACG, the binding signal was 0.0625 E-score.

As for CTGGAATC, the binding signal amounted to 0.158 E-score.

ACTCGTGA: the binding signal is -0.0261 E-score.

For the sequence TATGTGCA, the binding signal is -0.00972 E-score.

With AGCTGATG, the binding signal was found to be 0.0336 E-score.

For the sequence AGACTCCA, the binding signal is -0.189 E-score.

For the sequence GGTTAAAC, the binding signal amounted to 0.00204 E-score.

Regarding ACAGCCCC, the binding signal is -0.117 E-score.

Regarding ACAATACC, the binding signal was 0.318 E-score.

On to ATTGAACC, for which the binding signal was determined as 0.023 E-score.

In the case of CTGTTAGC, the binding signal is -0.00211 E-score.

On to CCAGCGCC, for which the binding signal was -0.352 E-score.

With GGCTACCC, the binding signal is -0.0488 E-score.

Turning to CAGATAAA, the binding signal came to 0.179 E-score.

On to ATGCTCAA, for which the binding signal is -0.122 E-score.

Take AGAGACAA: the binding signal was -0.191 E-score.

Take TCTGGTAA: the binding signal is 0.0628 E-score.

Consider ATTTCCGA, for which the binding signal worked out at 0.0497 E-score.

As to TACTAGCA, the binding signal was found to be 0.0418 E-score.

For the sequence AGTCTAAA, the binding signal was -0.0626 E-score.

In the case of AGGGTAAC, the binding signal is -0.0222 E-score.

Turning to CAATCTGC, the binding signal is -0.0146 E-score.

As to ATTGAACG, the binding signal was -0.0864 E-score.

In the case of TGGCGCAA, the binding signal is -0.203 E-score.

Consider AGGGATTG, for which the binding signal stood at 0.203 E-score.

With AGTTACCC, the binding signal is -0.127 E-score.

In the case of AAAAGTTG, the binding signal is -0.196 E-score.

As to AGCGGATG, the binding signal worked out at 0.154 E-score.

As for AGTCTCAT, the binding signal is -0.0067 E-score.

On to ATAATATC, for which the binding signal came out at 0.358 E-score.

For CAGGTCGC, the binding signal was -0.219 E-score.

Turning to AGTGTCGG, the binding signal is 0.0966 E-score.

Consider CCTGTTGA, for which the binding signal is -0.0461 E-score.

On to TGCATCAA, for which the binding signal worked out at 0.0883 E-score.

On to GCTCCTAC, for which the binding signal is -0.053 E-score.

Regarding CGCGGCAA, the binding signal was -0.16 E-score.

As to GGAGCCAC, the binding signal is -0.111 E-score.

In the case of GCATGAAA, the binding signal is -0.0531 E-score.

For the sequence TAAGACAA, the binding signal is -0.166 E-score.

With TACTAGAA, the binding signal was -0.149 E-score.

Turning to AATCCCTA, the binding signal was 0.185 E-score.

Consider AACAGCCA, for which the binding signal is -0.142 E-score.

As for CAACCGAC, the binding signal is 0.05 E-score.

Consider CCGATAGA, for which the binding signal turned out to be 0.079 E-score.

Turning to ACAGGCCT, the binding signal was -0.264 E-score.

For CCAGTTGA, the binding signal was -0.0592 E-score.

For the sequence CTAGATAG, the binding signal was 0.197 E-score.

For the sequence GTTGGACA, the binding signal worked out at 0.0696 E-score.

GGCGTGCA: the binding signal is -0.226 E-score.

As to CGTCCGAC, the binding signal was -0.0585 E-score.

With ATCAGGGG, the binding signal came to 0.307 E-score.

As for AATGTTCC, the binding signal was -0.194 E-score.

Take AGATATTA: the binding signal is 0.234 E-score.

Consider AACCACGA, for which the binding signal is -0.0293 E-score.

As for GATACTGC, the binding signal was determined as 0.445 E-score.

With AGCGCACA, the binding signal was found to be 0.00456 E-score.

Turning to CTTCGAGA, the binding signal was -0.174 E-score.

In the case of AGGCCATG, the binding signal was -0.148 E-score.

On to ATTTTCTG, for which the binding signal is -0.253 E-score.

As for GTCATATA, the binding signal is 0.136 E-score.

For the sequence ATGAGTCC, the binding signal was -0.0856 E-score.

On to GACCCTAC, for which the binding signal is -0.0502 E-score.

For CTACCAAG, the binding signal is -0.0197 E-score.

On to AGGAGGTC, for which the binding signal is -0.184 E-score.

In the case of ACCTGTTA, the binding signal is -0.148 E-score.

Regarding AACATAAA, the binding signal was -0.085 E-score.

In the case of ATATTCTG, the binding signal worked out at 0.15 E-score.

TCCGAGAA: the binding signal amounted to 0.00813 E-score.

Consider AGACTTCG, for which the binding signal was -0.274 E-score.

Turning to ACCTTCGA, the binding signal came out at 0.0633 E-score.

As to AACATGAT, the binding signal was 0.112 E-score.

Consider GCCCCACC, for which the binding signal was found to be 0.0916 E-score.

Take CAGGAGGA: the binding signal worked out at 0.00411 E-score.

With GGTAACAA, the binding signal was -0.0663 E-score.

As to GCGCGTTA, the binding signal came out at 0.0495 E-score.

For CTGCCCGC, the binding signal is -0.0571 E-score.

On to CTGGAGTA, for which the binding signal amounted to 0.11 E-score.

With CCATCTCG, the binding signal is 0.166 E-score.

As for AAGTTAAG, the binding signal is -0.261 E-score.

For the sequence GTCCTAAA, the binding signal was -0.148 E-score.

Take AAGGCAAG: the binding signal was -0.288 E-score.

With ACGCTGTA, the binding signal is -0.000255 E-score.

On to AAGGCAGG, for which the binding signal is -0.0169 E-score.

ATTGTCCG: the binding signal was -0.233 E-score.

In the case of AACCTATT, the binding signal was -0.156 E-score.

For AATCATTA, the binding signal is -0.0338 E-score.

As for CAGTTCTC, the binding signal was -0.00858 E-score.

In the case of ATATACTG, the binding signal was determined as 0.299 E-score.

As for GCACAGCC, the binding signal was -0.0822 E-score.

In the case of CTTTTCGA, the binding signal was -0.0777 E-score.

GGGGCTTA: the binding signal is -0.126 E-score.

For the sequence CTTCATAC, the binding signal worked out at 0.0997 E-score.

With ATTCGGGC, the binding signal is -0.158 E-score.

As to ATTCAGAC, the binding signal was -0.0456 E-score.

Take CATCGGAG: the binding signal is -0.0622 E-score.

As to ACTATTCT, the binding signal is -0.00415 E-score.

Regarding ATGAAACA, the binding signal was -0.084 E-score.

Consider ATCTTCAA, for which the binding signal is -0.0114 E-score.

As to CTTTGTGA, the binding signal is -0.0025 E-score.

TCAATCCA: the binding signal came out at 0.163 E-score.

Regarding CTCAATTC, the binding signal is -0.0408 E-score.

As to GACCCGAA, the binding signal is 0.00483 E-score.

Regarding CGGCTACG, the binding signal turned out to be 0.0124 E-score.

For the sequence CGACAACC, the binding signal is -0.183 E-score.

In the case of GGGGTCGA, the binding signal amounted to 0.237 E-score.

In the case of CATGGTAG, the binding signal is -0.107 E-score.

Consider GCTAAGGA, for which the binding signal was -0.129 E-score.

On to GATCGCTA, for which the binding signal worked out at 0.3 E-score.

As for ACGAACGG, the binding signal turned out to be 0.0758 E-score.

On to CGGCACAG, for which the binding signal is -0.16 E-score.

Regarding AATGAATT, the binding signal is -0.118 E-score.

For the sequence CTCTGAAA, the binding signal was -0.142 E-score.

In the case of GACGGCAC, the binding signal is -0.237 E-score.

Take CTAAGAGA: the binding signal is -0.0529 E-score.

For the sequence AATCTGAC, the binding signal turned out to be 0.092 E-score.
